The campaign covered roughly 110,000 compounds. About 230 (0.21%) showed an effect of 50% or more. The list shows a part of the results.
These molecules were tested against DPAP1 (Plasmodium falciparum, UniProt Q8IIJ9) (assay: primary screen, percent inhibition; read by cleavage of a fluorogenic dipeptide substrate; higher = more effect of the substance).
Design: species or system P. falciparum D10 trophozoite lysates; single well
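Further: 30 min substrate incubation versus DMSO and 10 µM JCP410 controls.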

Chain of DPAP1 (Q8IIJ9 whole entry, looked up): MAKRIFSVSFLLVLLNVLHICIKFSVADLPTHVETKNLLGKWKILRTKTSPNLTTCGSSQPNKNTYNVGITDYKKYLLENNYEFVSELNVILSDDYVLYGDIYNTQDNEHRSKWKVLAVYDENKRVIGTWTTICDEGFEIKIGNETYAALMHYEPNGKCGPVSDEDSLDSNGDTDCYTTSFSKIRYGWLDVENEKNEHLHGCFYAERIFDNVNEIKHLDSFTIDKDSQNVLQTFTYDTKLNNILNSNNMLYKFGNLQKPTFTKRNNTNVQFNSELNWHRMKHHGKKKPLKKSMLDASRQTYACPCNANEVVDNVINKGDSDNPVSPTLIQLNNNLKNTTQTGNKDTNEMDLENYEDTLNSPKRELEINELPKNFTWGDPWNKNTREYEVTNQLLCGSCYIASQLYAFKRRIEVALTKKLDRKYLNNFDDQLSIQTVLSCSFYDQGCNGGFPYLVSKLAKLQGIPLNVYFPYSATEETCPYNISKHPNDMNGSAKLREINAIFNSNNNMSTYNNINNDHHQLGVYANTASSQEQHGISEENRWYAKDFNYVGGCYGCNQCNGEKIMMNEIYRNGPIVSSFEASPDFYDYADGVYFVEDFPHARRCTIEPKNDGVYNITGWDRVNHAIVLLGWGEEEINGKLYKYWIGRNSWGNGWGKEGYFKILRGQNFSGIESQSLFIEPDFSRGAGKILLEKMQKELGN

Compared with `COc1cc(C2c3c(oc4ccccc4c3=O)C(=O)N2c2nnc(C)s2)ccc1O` (stereo not drawn), `COc1ccc(C(=O)c2c(C)c3ccccc3n2C)cc1OC` is higher in “% Inhibition @ 10 uM” value: -7.38% for the first, 1.42% for the second.

First: CCCCN(CCNC(=O)c1noc2c1COc1ccc(C)cc1-2)Cc1ccco1
Second: CCCCNc1ncnc2c1[nH]c1ccc(C)cc12
The “% Inhibition @ 10 uM” value of the first is lower: -7.84% for the first, -7.23% for the second.

Going from `O=C(CSc1nnc(CNC(=O)c2ccccc2F)n1-c1ccccc1)Nc1nccs1` to `CCOc1ccccc1C(=O)Nc1cccc(NC(=O)c2ccccc2OCC)n1`, the “% Inhibition @ 10 uM” value falls from -1.3% to -4.43%.

First: CC1=C(C(=O)Nc2cccc(C)n2)C(c2ccc(Cl)cc2Cl)C2=C(O)CCCC2=N1 (stereo not drawn)
Second: CC1=C(C(=O)Nc2cccc(C)c2)C(c2ccc(Cl)cc2Cl)NC(S)=N1 (stereo not drawn)
The “% Inhibition @ 10 uM” value of the first is higher: -0.305% for the first, -1.56% for the second.

Compared with `C#CC(C)(C)NCCC(=O)C1=CCCCC1`, `O=C(NC1CCCCCC1)c1ccc(COCC(F)(F)C(F)F)o1` is higher in “% Inhibition @ 10 uM” value: 2.47% for the first, 6.03% for the second.

Going from `O=C(Nc1ccccc1)N(CCCN1CCOCC1)Cc1ccccc1F` to `c1ccc(CCN2CCC(NC(Cc3ccccc3)c3ccccc3)CC2)cc1` (stereo not drawn), the “% Inhibition @ 10 uM” value rises from -4.12% to -3.27%.

First: COc1ccc(S(=O)(=O)N2CCC(C)CC2)cc1
Second: COc1ccc(NC(=O)CC2SCCNC2=O)cc1 (stereo not drawn)
The “% Inhibition @ 10 uM” value of the first is higher: 3.47% for the first, -7.75% for the second.

Going from `COc1ccc2[nH]c(S(=O)(=O)C[C@@H](CCc3ccccc3)NC(=O)[C@H](CC(C)C)NC(=O)OCc3ccccc3)nc2c1` to `CC(C)CC(NC(=O)c1ccc(NC(=O)N(C)[C@H]2CCN(Cc3ccccc3)C2)cc1)C(=O)NCC#N` (stereo partly drawn), the “% Inhibition @ 10 uM” value falls from -5.64% to -7.36%.

Going from `Cc1nn(-c2ccccc2)c(O)c1/C=N/c1ccccc1Cl` to `Cc1nn(-c2ccc(Cl)cc2)c(O)c1/C=N/c1ccc(SC#N)cc1`, the “% Inhibition @ 10 uM” value rises from 1.08% to 2.36%.

Compared with `C=Cc1cccc(C(=O)N[C@@H](CC(C)C)C(=O)NCC#N)c1`, `CN1CCN(c2ccc(C(=O)N[C@@H](Cc3cc(Cl)c(O)c(Cl)c3)C(=O)NCC#N)cc2)CC1` is lower in “% Inhibition @ 10 uM” value: 0.174% for the first, -3.25% for the second.

First: COCCNC(=O)C1CCC(=O)N1Cc1ccc(F)cc1 (stereo not drawn)
Second: CCN1CCCC1CNC(=O)c1ccc(F)cc1 (stereo not drawn)
The “% Inhibition @ 10 uM” value of the first is lower: -1.79% for the first, 0.0538% for the second.

Compared with `FC(F)(F)COc1nc(NCc2ccccc2)nc(OCC(F)(F)F)n1`, `Cc1cc(C)n2nc(S(=O)(=O)N(C)Cc3ccccc3)nc2n1` is lower in “% Inhibition @ 10 uM” value: 2.6% for the first, -1.24% for the second.

Going from `O=c1[nH]c(/C=C/c2cc(Br)cc(Br)c2O)c([N+](=O)[O-])c(=O)[nH]1` to `CC1=NOC(=O)/C1=C\c1cc(Br)c(O)c(Br)c1`, the “% Inhibition @ 10 uM” value falls from 2.26% to 0.487%.

Compared with `CCOC(=O)C(Cc1c[nH]c2ccccc12)NC(=O)C(C)(C)C` (stereo not drawn), `CCOc1ccc(S(=O)(=O)Nc2ccccc2C(=O)NC(C)C)cc1` is higher in “% Inhibition @ 10 uM” value: -3.48% for the first, -1.24% for the second.

Compared with `Clc1ccc(-c2ccc(CN3CCSCC3)o2)cc1`, `COc1ccccc1N1CCN(C(=O)c2cc(Cl)ccc2Cl)CC1` is higher in “% Inhibition @ 10 uM” value: -3.15% for the first, 4.53% for the second.

First: CCC(=O)NC(C)c1ccc(Br)cc1 (stereo not drawn)
Second: Cc1ccc(C)c(S(=O)(=O)NC(C)C(=O)Nc2ccc(Br)cc2F)c1 (stereo not drawn)
The “% Inhibition @ 10 uM” value of the first is lower: 0.177% for the first, 0.709% for the second.

Compared with `C#CCN1C(=O)S/C(=C\c2ccc(OC)c(C)c2OC)C1=O`, `CN1C(=O)S/C(=C\c2ccc(OCc3ccc(F)cc3)c(Br)c2)C1=O` is higher in “% Inhibition @ 10 uM” value: -2.76% for the first, 2.17% for the second.

Going from `OCCOCCN1CCN(CC2CC=CCC2)CC1` (stereo not drawn) to `C1CCCC(NCCN2CCOCC2)CC1`, the “% Inhibition @ 10 uM” value falls from -1.21% to -9.34%.

First: Cc1nc(=O)c(-c2ccccc2)c(C)n1CCC12CC3CC(CC(C3)C1)C2
Second: CN1C(=O)NC(c2ccccc2)C2=C1CC(C)(C)CC2=O (stereo not drawn)
The “% Inhibition @ 10 uM” value of the first is higher: 5.49% for the first, -4.49% for the second.

Compared with `CN1C(=O)C(=Cc2ccc3c(c2)OCO3)C(=O)N(C)C1=O`, `N=C1/C(=C/c2ccc3c(c2)OCO3)C(=O)N=C2SC=C(c3ccccc3)N12` is lower in “% Inhibition @ 10 uM” value: 1.9% for the first, 1.52% for the second.

Compared with `COc1ccc(C2C(C#N)=C(N)N(c3ccc(Br)cc3F)C3=C2C(=O)CCC3)cc1O` (stereo not drawn), `N#CC1=C(N)OC2=C(C(=O)CCC2)C1c1ccc(Br)cc1F` (stereo not drawn) is higher in “% Inhibition @ 10 uM” value: -2.54% for the first, 0.983% for the second.

Going from `COc1ccc(C(=O)/C=C/c2ccc(F)cc2)c(OC)c1` to `CC(C)c1ccc(/C=C/C(=O)Nc2ccc(C(C)C)cc2)cc1`, the “% Inhibition @ 10 uM” value rises from -3.55% to -1.59%.

First: CCCNc1nc(N2CCOCC2)nc(N2CCOCC2)n1
Second: COc1cc(OC)cc(C(=O)N2CCOCC2)c1
The “% Inhibition @ 10 uM” value of the first is higher: -1.48% for the first, -2.78% for the second.

Going from `COC(=O)C1=C(C)N=c2s/c(=C/c3ccc(OC)cc3OC)c(=O)n2C1c1cccs1` (stereo not drawn) to `CCOC(=O)C1=C(C)N=c2s/c(=C/c3ccccc3)c(=O)n2C1c1ccc(C)cc1` (stereo not drawn), the “% Inhibition @ 10 uM” value rises from 6.51% to 8.01%.

Going from `CCOc1cc(C2C3=C(O)CCCC3=Nc3ncnn32)ccc1OC(F)F` (stereo not drawn) to `CCC(C)C(Nc1ncnc2sc3c(c12)CCC3)C(=O)O` (stereo not drawn), the “% Inhibition @ 10 uM” value rises from -3.37% to -1.47%.

First: CN(C)CCCOc1ccc2c(c1)Sc1ccccc1CC2=O
Second: CN(Cc1ccccc1)C(=O)COc1ccc(S(=O)(=O)NC2CCCC2)cc1
The “% Inhibition @ 10 uM” value of the first is lower: -4.12% for the first, -3.45% for the second.

Going from `CCn1cc(C(=O)OCC(=O)N2CCCC(C)C2)c(=O)c2ccc(C)nc21` (stereo not drawn) to `CCOC(=O)c1cc2c(=O)n3ccccc3nc2n(CC2CCCO2)/c1=N/C(=O)c1cccnc1` (stereo not drawn), the “% Inhibition @ 10 uM” value falls from 7.76% to -1.3%.

Going from `COc1ccc(CCNc2nc3nc(C)c(C)nc3n2C)cc1OC` to `COc1ccc(-c2cc(N)n(S(=O)(=O)c3ccc(Br)cc3)n2)cc1OC`, the “% Inhibition @ 10 uM” value rises from -7.61% to 2.34%.

First: O=C(O)c1ccccc1C(=O)OCCO
Second: COc1ccccc1C(=O)CC#N
The “% Inhibition @ 10 uM” value of the first is higher: 4.55% for the first, -2.88% for the second.

Going from `COc1ccc(-c2noc(CN(C(=O)CN(C)S(=O)(=O)c3ccc(Cl)cc3)C(C)C)n2)cc1` to `O=S(=O)(c1ccc(Cl)cc1)c1nnn2c1nc(NCc1ccco1)c1sccc12`, the “% Inhibition @ 10 uM” value rises from -1.22% to 2.49%.

Going from `Cn1c2c(c(=O)n(C)c1=O)C(c1ccccc1Cl)C(C#N)=C(N)O2` (stereo not drawn) to `CN1C(=O)C(=CNc2ccccc2Oc2ccccc2)C(=O)N(C)C1=O`, the “% Inhibition @ 10 uM” value rises from -6.62% to 2.08%.

First: Cc1ccc(-n2nc3c(=O)n(CCCC(=O)O)nc(C)c3c2C)cc1
Second: Cc1nn(C(C)C(=O)N2CCN(C3CCCCC3)CC2)c(=O)c2nn(-c3ccccc3)c(C)c12 (stereo not drawn)
The “% Inhibition @ 10 uM” value of the first is higher: 1.63% for the first, -2.87% for the second.

Going from `CC(C)OCCCNc1ncnc2onc(-c3ccc(F)cc3)c12` to `CC(C)CCNC(=O)c1nnc(Cc2ccc(Cl)cc2)o1`, the “% Inhibition @ 10 uM” value falls from -2.71% to -5.29%.

Going from `CCOC(=O)c1c(C)[nH]c(C)c1S(=O)(=O)NCC(=O)Nc1nc(C)cs1` to `Cc1csc(NC(=O)C(CC(C)C)N2Cc3ccccc3C2=O)n1` (stereo not drawn), the “% Inhibition @ 10 uM” value rises from -6.86% to 4.84%.

First: CCCN(CCO)Cc1ccc(N(C)C)cc1
Second: CCN(CC)C(=O)CN1C(=O)C(=O)c2ccccc21
The “% Inhibition @ 10 uM” value of the first is lower: -3.57% for the first, 7.87% for the second.

Going from `CCCSC(=S)NC1CCS(=O)(=O)C1` (stereo not drawn) to `O=C(O)CCCCCN1C(=O)C2CCCCC2C1=O` (stereo not drawn), the “% Inhibition @ 10 uM” value falls from 12% to 1.02%.

First: Cc1c(C(=O)N2CCCN(Cc3ccccc3Cl)C2)sc2nc3n(c(=O)c12)CCCCC3
Second: Cc1ccccc1-c1nc(CS(=O)(=O)CC(=O)N2CCCCCC2)c(C)o1
The “% Inhibition @ 10 uM” value of the first is lower: -4.11% for the first, -3.7% for the second.

Compared with `O=C(CC(c1ccc(F)cc1)N1Cc2ccccc2C1=O)N1CCCCC1` (stereo not drawn), `C=C(C)Cn1c(SCC(N)=O)nc2c(c1=O)C1(CCCC1)Cc1ccccc1-2` is higher in “% Inhibition @ 10 uM” value: -5.92% for the first, 2.69% for the second.

Going from `Cc1ccccc1-n1nc2c(c1NC(=O)c1ccc(Cl)cc1Cl)CS(=O)(=O)C2` to `Cc1ccccc1NC1=C(C(=O)c2ccccc2)N(C)S(=O)(=O)c2ccccc21`, the “% Inhibition @ 10 uM” value falls from -1.43% to -4.49%.

Going from `CC(C)(C)c1cc(C(=O)Nc2cccc([N+](=O)[O-])c2)cc(C(C)(C)C)c1` to `COc1ccc(C(=O)Nc2ccc(C)c(C)c2)cc1Br`, the “% Inhibition @ 10 uM” value rises from -1.45% to 0.145%.

First: CC1=CC2=NC(=O)/C(=C\c3cccn3CCCOc3cc(C)c(Cl)c(C)c3)C(=N)N2O1
Second: COc1cc(O)ccc1C1CC(=O)Nc2c1c(=O)nc(SCc1ccc(Cl)cc1)n2C (stereo not drawn)
The “% Inhibition @ 10 uM” value of the first is lower: -3.23% for the first, 2.25% for the second.

Going from `COc1ccc(Cl)cc1NS(=O)(=O)c1c(C)cc(C)cc1C` to `Cc1nnc(NC(=O)COc2c(C)ccc(C)c2C)s1`, the “% Inhibition @ 10 uM” value rises from 0.815% to 6.76%.

First: Cn1cc(Br)c(C(=O)Nc2ccc3c(c2)OCCO3)n1
Second: Cc1ccc(C(=O)Nc2sc3c(c2C(=O)N2CCOCC2)CCC(C)C3)cc1 (stereo not drawn)
The “% Inhibition @ 10 uM” value of the first is lower: -3.05% for the first, 0.873% for the second.

First: COc1ccccc1N1CCN(C2CC(=O)N(c3ccccc3)C2=O)CC1 (stereo not drawn)
Second: CCOC(=O)CN1CCN(c2ccccc2Cl)CC1
The “% Inhibition @ 10 uM” value of the first is higher: -2.32% for the first, -3.77% for the second.

First: CN1C/C(=C\c2ccccc2F)C(=O)/C(=C/c2ccccc2F)C1
Second: CCOc1ccc(C2(c3ccc(OCC)cc3)c3ccccc3Nc3ccccc32)cc1
The “% Inhibition @ 10 uM” value of the first is higher: 14.5% for the first, 1.2% for the second.

First: CC(C(=O)O)N1C(=O)C2C3CC(C2C1=O)C1C(c2ccc(O)cc2)c2sc(O)nc2SC31 (stereo not drawn)
Second: CC(C)C1Cc2c(sc3nc(SCC(=O)Nc4ccccc4)nc(N)c23)CO1 (stereo not drawn)
The “% Inhibition @ 10 uM” value of the first is lower: -7.27% for the first, 0.812% for the second.

First: CC(CCCC(C)(C)O)NC1Cc2ccccc2C1 (stereo not drawn)
Second: NC(=S)N/N=C/C=C/c1ccccc1
The “% Inhibition @ 10 uM” value of the first is lower: -1.81% for the first, 4.35% for the second.

Compared with `O=C(O)CC12CC3CC(C1)CC(n1ncc(NC4CCCCCCC4)c(Cl)c1=O)(C3)C2`, `O=C(Cn1ccc2cc(S(=O)(=O)N3CCCC3)ccc21)NC1CCN(Cc2ccccc2)CC1` is higher in “% Inhibition @ 10 uM” value: -8.58% for the first, 3.13% for the second.

Compared with `O=C(c1cc(F)c(F)cc1Cl)n1cccn1`, `Cc1nn(C)c2c1c(C(F)(F)F)cc(=O)n2CC(=O)NCc1ccco1` is higher in “% Inhibition @ 10 uM” value: -1.4% for the first, 0.389% for the second.

In the case of `COc1cc(CNC(=O)C2CCN(c3ncccn3)CC2)cc(OC)c1OC`, the “% Inhibition @ 10 uM” value is reported as 0.758%.

From article PMC6919601, “Identification of Plasmodium dipeptidyl aminopeptidase allosteric inhibitors by high throughput screening” (PLoS ONE, 2019)
